# Source: PubChem BioAssay AID1159614 (National Center for Advancing Translational Sciences (NCATS), 2016)
# Screen size: about 45,000 compounds; about 65 (0.1%) were called active. Calls come from the whole dose curve; as a rule, active = well fitted activation curve with a large enough effect; inconclusive = small, poorly fitted or top-dose-only effect; inactive = no such curve, though single readings can be large or run the other way. Some of the results follow.
# Biological target: Galactocerebrosidase (Homo sapiens) (UniProt P54803)
# Assay: A Novel Cell-Based Assay to Identify Small Molecules for B -Galactocerebrosidase; note: 0% is about no effect; nearly all actives have a fitted effect of over 65% in size
# Conditions: 145M-Twi-hGALC-G270D cells (Twitcher mouse brain line with human GALC G270D), HMU-beta-Gal fluorescence, 48 h; series mostly up to 57.5 µM; activation: at the top concentration
# Outline: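 Fluorogenic HMU-b-Gal hydrolysis (0.1 mM final, pH 5.2 citrate-phosphate with 1 mg/mL sodium taurocholate; carbonate stop buffer) measures mutant GALC activity after compound treatment of live 145M-Twi Twitcher brain cells stably carrying human GALC-G270D, with wild-type GALC line alongside; activation sought.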
# UniProt P54803, sequence (P54803 whole entry, looked up): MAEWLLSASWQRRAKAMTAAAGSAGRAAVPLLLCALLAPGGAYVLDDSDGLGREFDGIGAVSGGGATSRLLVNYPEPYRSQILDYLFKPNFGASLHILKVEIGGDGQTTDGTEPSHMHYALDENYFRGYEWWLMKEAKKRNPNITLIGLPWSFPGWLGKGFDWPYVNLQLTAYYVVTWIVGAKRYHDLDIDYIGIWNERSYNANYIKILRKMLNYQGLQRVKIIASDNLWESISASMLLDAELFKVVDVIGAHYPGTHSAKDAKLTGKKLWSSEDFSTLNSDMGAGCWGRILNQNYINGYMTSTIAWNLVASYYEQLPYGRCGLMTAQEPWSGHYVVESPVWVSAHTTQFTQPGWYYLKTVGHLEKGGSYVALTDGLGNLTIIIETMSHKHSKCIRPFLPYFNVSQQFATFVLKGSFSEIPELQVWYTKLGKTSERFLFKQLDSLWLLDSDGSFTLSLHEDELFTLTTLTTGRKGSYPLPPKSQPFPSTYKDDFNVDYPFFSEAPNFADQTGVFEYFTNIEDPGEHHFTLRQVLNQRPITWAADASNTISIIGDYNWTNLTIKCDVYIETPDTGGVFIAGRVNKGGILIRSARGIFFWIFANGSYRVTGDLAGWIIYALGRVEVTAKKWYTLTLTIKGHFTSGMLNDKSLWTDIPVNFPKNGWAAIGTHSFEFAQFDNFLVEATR
row,SMILES,activation
1,CC(C)OCc1cc(CN2CCN(c3ccccc3)CC2)c(O)c2ncccc12,inactive: -16.3%
2,Cc1cccc2c1-c1sc(C(=O)N3CCN(c4cccc(Cl)c4)CC3)cc1CO2,inactive: -7.67%
3,CCOc1ccc(CCNC(=O)c2cnc3sc(N4CCCCCC4)nn3c2=O)cc1,inactive: 8.66%
4,Cc1ccc(C)c(C(=O)COC(=O)CCCC(=O)Nc2cc(C(F)(F)F)ccc2Cl)c1,inactive: -8.46%
5,Cc1cccc(CC(=O)NCCc2csc(-c3ccc(C(F)(F)F)cc3)n2)c1,inactive: 0.234%
6,CC1=C(C(=O)Nc2ccc(F)cc2F)C2(CCCCCC2)OC1=O,inactive: 3.87%
7,CCOC(=O)c1ccc(N2C(=O)c3n[nH]c(-c4ccco4)c3C2c2ccc(F)cc2)cc1 (configuration not stated),inactive: -11.7%
8,COc1ccccc1CNC(=O)C(CC(C)C)N1Cc2ccccc2C1=O (configuration not stated),inactive: -10.6%
9,O=C(CSc1nccn1Cc1ccc(Cl)cc1)NCc1ccccc1,inactive: -5.07%
10,O=C(CN1C(=O)C2(SCC(=O)N2c2ccc(F)c(F)c2)c2ccccc21)Nc1ccccc1F (configuration not stated),inactive: -22.4%
11,COc1cc(C2C(C(=O)Nc3ccccc3)=C(C)Nc3nc(SCc4ccccc4F)nn32)cc(OC)c1OC (configuration not stated),inactive: 14.2%
12,CCOC(=O)c1c(S(=O)(=O)N2CCC(C(=O)N3CCN(c4cc(C)ccc4C)CC3)CC2)c(C)n(C)c1C,inactive: -25.6%
13,Cc1sc2c(c1C)c(=O)n(-c1ccc(Cl)cc1)c(=O)n2Cc1c(F)cccc1Cl,inactive: -2.31%
14,CCOc1ccccc1CNS(=O)(=O)c1csc(C(N)=O)c1,inactive: -15.7%
15,Cc1ccc(-c2cc(C(=O)N3CCN(c4ccccc4)CC3)c3ccccc3n2)cc1C,inactive: -21.1%
16,CC1CCN(S(=O)(=O)c2cc(C(=O)Nc3ccc(Br)cc3F)n(C)c2)CC1,inactive: 3.29%
17,COC(=O)c1cc(NC(=O)CCc2c(C)nc3cc(-c4ccccc4)nn3c2C)cc(C(=O)OC)c1,inactive: -8.8%
18,CCOc1cc2c(cc1OCC)C(c1c(F)cccc1Cl)CC(=O)N2 (configuration not stated),inactive: -11.9%
19,COc1ccc(C)cc1NC(=O)Cn1cc(S(=O)(=O)Cc2ccccc2Cl)c2ccccc21,inactive: -7.4%
20,CCc1ccccc1NC(=O)c1nc(-c2ccncc2)no1,inactive: -14.1%
21,Cc1cccc(NC(=O)Cn2c(C(F)(F)F)nc3ccccc32)c1C,inactive: 5.17%

row,SMILES,activation
1,CC(C)CCNC(=O)c1ccc2c(c1)N(Cc1ccccc1F)C(=O)c1ccccc1S2=O (configuration not stated),inactive: -8.82%
2,COc1ccccc1OCC(=O)NCC1(N(C)C)CCCCC1,inactive: -8.95%
3,Cc1ccc(N2CC(NC(=O)C(=O)c3c[nH]c4ccccc34)CC2=O)cc1 (configuration not stated),inactive: -5.01%
4,O=C(NC1CCCCC1)c1ccc(CSc2nc3cccnc3n2Cc2ccccc2F)cc1,inactive: -8.58%
5,O=C(Cn1ncc2c(Cl)cccc21)NCc1cccc(Br)c1,inactive: -8.77%
6,Cc1ccc(Cn2c(CCCNC(=O)C3CCCCC3)nc3ccccc32)cc1,inactive: -11.3%
7,N#C/C(=C\c1c(Oc2ccc(Br)cc2)nc2ccccn2c1=O)c1nc2ccccc2s1,inactive: 3.41%
8,COC(=O)c1cccc(NC(=O)Nc2cc(C(=O)NCc3cccc(F)c3)ccc2N2CCCC2)c1,inactive: -26.8%
9,O=C(CSc1nc(=O)n(Cc2cccnc2)c2c1CCC2)Nc1ccc(F)cc1F,inactive: -16%
10,Cc1ccc(Cc2nc3ccccc3nc2SCC(=O)N2CCCCC2C)cc1 (configuration not stated),inactive: 2.88%
11,Oc1ccc(NCc2ccc(OCc3ccccc3Cl)cc2)cc1,inactive: -18.8%
12,CN(C)c1ccc(CNC(=O)CCCn2ccc3cc(S(=O)(=O)N4CCCC4)ccc32)cc1,inactive: -1.57%
13,COc1ccccc1N1CCN(C(=O)c2cn(C)c3ccc(S(=O)(=O)N4CCOCC4)cc3c2=O)CC1,inactive: -5.15%
14,Cc1nn(C(C)C(=O)NC2CCC(C)CC2)c(=O)c2cc3sccc3n12 (configuration not stated),inactive: -19.1%
15,COc1ccc(CCN2CCC(CNC(=O)c3cnn(-c4ccccc4)c3C3CCN(C(=O)OC(C)(C)C)CC3)CC2)cc1,inactive: -5.92%
16,COc1cccc(N2CCN(S(=O)(=O)c3ccc4c(c3)CCCN4C(C)=O)CC2)c1,inactive: -10.9%
17,CCOC(=O)c1c(NC(=O)c2cc(=O)c3ccc(C)cc3o2)sc(C)c1C,inactive: 4.48%
18,COc1ccc(Cl)cc1NC(=O)c1cc(C)nn1-c1ccccc1,inactive: -14.1%
19,COc1ccc(N2CCN(C(=O)CS(=O)(=O)c3cccc4nsnc34)CC2)cc1,inactive: -16.7%
20,CC(=O)N1CCc2cc(Br)cc(S(=O)(=O)N3CCN(c4cccc(C)c4)C(C)C3)c21 (configuration not stated),inactive: -12.8%
21,O=C(NCCc1csc(-c2cccnc2)n1)c1ccc(F)c(F)c1,inactive: -15.1%

row,SMILES,activation
1,CCCCN1CCc2nc(N3CCN(C)CC3)ncc2C1,inactive: -15.2%
2,O=S(=O)(c1ccc(Cl)cc1)c1nnn2c1nc(N1CCCCC1)c1sccc12,inactive: -0.256%
3,CCOc1ccc(C2C(C(=O)Nc3ccc(Cl)cc3)=C(C)Nc3nc(C(F)(F)F)nn32)cc1 (configuration not stated),inactive: -17.7%
4,COc1ccc(OC)c(S(=O)(=O)N2CC=C(c3c(C)n(CC(=O)N4CCCC4)c4ccccc34)CC2)c1,inactive: -7.52%
5,COc1ccc(-c2nc3sc(CCNC(=O)c4ccccc4C)c(C)n3n2)cc1,inactive: -1.45%
6,Cc1cn(C)c(CC(=O)N2CCN(c3ccccc3F)CC2)c1C(=O)O,inactive: -4.88%
7,CC(CNC(=O)CCS(=O)(=O)c1ccc2c(c1)oc(=O)n2C)c1ccccc1 (configuration not stated),inactive: -21.3%
8,Cc1ccc2c(c1)-c1c(c(C(=O)N3CCN(c4cc(Cl)ccc4C)CC3)nn1C)CS2,inactive: -11.7%
9,Cc1cccc(NC(=O)N2CCC(CN3CCOCC3)CC2)c1C,inactive: 1.44%
10,Fc1ccccc1-n1ncc2c1ncn1nc(Cc3ccccc3)nc21,inactive: -3.97%
11,Cc1ccccc1NC(=O)CN(c1ccc(Cl)cc1Cl)S(=O)(=O)c1ccccc1,inactive: -6.89%
12,CCCCN(C)CCNC(=O)c1ccc2c(c1)NC(=O)CN2,inactive: -13.9%
13,Cc1cccc(C(=O)Nc2nc(-c3nnn(-c4cc(F)ccc4F)c3C)ns2)c1,inactive: -4.46%
14,Cc1cccn2c(=O)c3cc(C(=O)N(Cc4ccccc4)C(C)C)sc3nc12,inactive: -10.4%
15,Cc1c(C(=O)NCCc2ccc(S(N)(=O)=O)cc2)sc2nc3n(c(=O)c12)CCCC3,inactive: -14.5%
16,O=S(=O)(NCc1ccccc1Cl)c1ccc(N2CCCCS2(=O)=O)cc1,inactive: -1.82%
17,COc1ccc(-c2ccc3cc(C(=O)O)ccc3c2)cc1C12CC3CC(CC(C3)C1)C2,inactive: -16.4%
18,CCc1ccccc1NC(=O)CSc1nc2c(oc3ccccc32)c(=O)n1-c1ccccc1F,inactive: -11.2%
19,Cc1ccc(NC(=O)C(=O)NCC(c2cccnc2)N2CCN(Cc3ccccc3)CC2)cc1 (configuration not stated),inactive: -14.4%
20,CC(=O)Nc1ccc(-c2nnc(SCC(=O)c3ccc([N+](=O)[O-])cc3)o2)cc1,inactive: -8.5%
